Data taken from patent US20250179210A1, “ANTI-CEACAM5 ANTIBODIES AND CONJUGATES AND USES THEREOF” (Merck Patent GmbH, priority 2022, published 2025).

B1: ADC2 (conjugate)
heavy: EVQLQESGPGLVKPSQTLSLTCTVSDGSVSRGGYYLTWIRQHPGKGLEWIGYIYYSGSTYFNPSLRSRVTMSVDTSKNQFSLKLSSVTAADTAVYYCARGIAVAPFDYWGQGTLVTVSSASTKGPSVFPLAPSSKSTSGGTAALGCLVKDYFPEPVTVSWNSGALTSGVHTFPAVLQSSGLYSLSSVVTVPSSSLGTQTYICNVNHKPSNTKVDKRVEPKSCDKTHTCPPCPAPPVAGPSVFLFPPKPKDTLMISRTPEVTCVVVDVSHEDPEVKFNWYVDGVEVHNAKTKPREEQYNSTYRVVSVLTVLHQDWLNGKEYKCKVSNKALPSSIEKTISKAKGQPREPQVYTLPPSREEMTKNQVSLTCLVKGFYPSDIAVEWESNGQPENNYKTTPPVLDSDGSFFLYSKLTVDKSRWQQGNVFSCSVMHEALHNHYTQKSLSLSPG
light: EIVLTQSPATLSVSPGERATLSCRTSQSVRSNLAWYQQKPGQAPRLLIYAASTRATGIPARFSGSGSGTEFTLTISSLQSEDFAVYYCQQYTNWPFTFGPGTKVDIKRTVAAPSVFIFPPSDEQLKSGTASVVCLLNNFYPREAKVQWKVDNALQSGNSQESVTEQDSKDSTYSLSSTLTLSKADYEKHKVYACEVTHQGLSSPVTKSFNRGEC
B2: ADC mAb1 DM4 (conjugate)
heavy: B1 heavy
light: B1 light

Legend:
[1] = test system: human patient-derived CRC xenograft model COPF217; test: CRC PDX mouse model COPF217; assay type: in vivo; details: single i.v. treatment, 10 mg/kg
Description: Anti-tumor efficacy in vivo has been evaluated in the human patient-derived CRC xenograft model COPF217 (Shanghai LideBiotech CO., LTD). COPF217 tumor fragments were transplanted subcutaneously into the right flank of six to eight weeks old immunodeficient female mice (NU-Foxn1nu, Charles River). […] Tumor length (L) and width (W) were measured with calipers and tumor volumes were calculated using the formula L×(W^2)/2.

MDA-MB-468 = test: Viability assay (Cell Titer-Glo); assay type: cell-based, human; details: Table 2
SNU-16 = test: Viability assay (Cell Titer-Glo); assay type: cell-based, human; details: Table 2; at the highest tested compound concentration
ADC stability in serum = assay type: in vitro ADME; details: up to 96 h
Description: 2 M HEPES solution: 52.1 g HEPES were dissolved in 75 mL MiliQ-water and 15 mL HCl 25%, adjusted to pH 7.55 and added up to 100 mL. This solution was mixed as 15% v/v with serum to obtain a stabilized serum with pH 7.3-7.4. Human serum from Biowest (Lot. no. S15594S4200) was thawed. 100 mL serum were mixed with 15 mL 2 M HEPES buffer. Mouse serum from Biowest (Lot. no. S18169S2160) was thawed. 100 mL serum were mixed with 15 mL 2 M HEPES buffer. Cynomolgus serum was thawed and 8.5 mL serum were mixed with 1.5 mL 2 M HEPES buffer. The pH was measured (7.37) and serum was sterile filtered. 2 mL aliquots were frozen at −20° C.
The prepared serum was thawed at RT. The desired ADC protein concentration was prepared as triplicated with 180 μg/mL for subsequent free payload analytics via LC-MS. After adding the ADCs to the serum, the individual batches were mixed and separated into 20 μL aliquots.
Additionally, one 96 h sample with 20 μL for each ADC was pipetted and was used to for total work up analyses to measure recovery. 0 h samples were directly frozen at −80° C., remaining samples were incubated at 37° C. and 5% CO2 and reactions were stopped at 2/4/6/24/48/72, 96 hours incubation via storage at −80° C.

MDA-MB-231 = test: Viability assay (Cell Titer-Glo); assay type: cell-based, human; details: Table 2
SK-CO-1 = test: Viability assay (Cell Titer-Glo); assay type: cell-based, human
LS174T = test: Viability assay (Cell Titer-Glo); assay type: cell-based, human; details: Table 2; at the highest tested compound concentration
MKN-45 = test: Viability assay (Cell Titer-Glo); assay type: cell-based, human; details: Table 2; at the highest tested compound concentration
[2] = Payload liberation in human liver lysosomes; assay type: in vitro ADME; details: human liver lysosomes, pH 5.0
Description: pH was adjusted either to pH 5.0 or pH 4.0 using assay buffer. […] Preparation of MeOH+PIC (1:200): 10 μL PIC III+1990 μL MeOH. The reactions were started upon transferring the Eppendorf tubes to a Thermomix that was preheated to 37° C. Subsequently, 10 μL aliquots were drawn after 0, 1, 2, 4, 24 and 48 hours and mixed with 40 μL PIC III (1:200).

[3] = test system: CEACAM5-negative MDA-MB-231 cells in co-culture with CEACAM5-positive SK-CO-1 cells; test: Bystander assay; assay type: cell-based, human; details: for bystander effect compared to ADC SAR DM4: co-culture, 1 nM
Description: Cytotoxicity effects of ADCs on antigen-negative cancer cell lines in co-culture with antigen-positive cancer cell lines were measured by bystander assays. One thousand CEACAM5-negative MDA-MB-231 cells were seeded in co-culture experiments with 750 or 3000 CEACAM5-positive SK-CO-1 cells per well. As a control, 1000 MDA-MB-231 cells only were seeded in parallel. Cells were seeded in a total volume of 90 μL in 96-well plates the day before treatment. Test compounds were formulated at 10-fold the final concentration of 1E-9 M in cell culture medium and 10 μL was added to the cells in duplicates. Plates were cultured at 37° C. in a CO2 incubator for six days.
Prior to immunofluorescence staining, medium was removed and cells were treated with 100% methanol (−20° C.) for 30 minutes. After methanol removal and one PBS wash step, cells were treated with 2.5% paraformaldehyde (PFA) with 0.2% Triton X-100 in PBS for 15 minutes at room temperature. After solution removal and one PBS wash step, cells were treated with 1% BSA/0.1% Tween/0.1% sodium azide in PBS for at least one hour at room temperature. Antigen-positive and antigen-negative cells were discriminated by immunofluorescence staining with 10 μg/mL human anti-CEACAM5 (mAb1) primary antibody and 1:2000 dilution of donkey anti-human IgG fluorescently (phycoerythrin) labeled secondary antibody (Jackson ImmunoResearch #709-116-149). Cells were identified by nuclei staining using 1 μg/mL Hoechst 33342 (Life technologies, cat #H3570) dye. Staining was carried out in 1% BSA/0.1% sodium azide PBS solutions for 30 minutes at room temperature. Secondary antibody staining was combined with Hoechst dye staining. Between and after staining steps, cells were washed thrice with PBS.
Plates were imaged with the confocal quantitative image cytometer CQ1 (Yokogawa® Electric Corporation, Tokyo, Japan). Analysis was adapted from the CQ1 software (Yokogawa) template “Nucleus and pseudo-Cell body” and FCS export files were analyzed using FlowJo (BD). Based on staining or absence of staining with fluorescently labeled antibody around the nucleus, antigen-positive and antigen-negative cells were distinguished and quantified. Bar graphs show the number of identified antigen-positive and antigen-negative cells per treatment condition.

[4] = at the highest tested compound concentration

Molecule | anti-tumor effect [1] | impact on body weight [1] | MDA-MB-468 maximal effect compared to untreated controls (MDA-MB-468; [4]) | IC50 (MDA-MB-468; six days, geometric mean, N ≥ 2, CEACAM5 Negative) | SNU-16 maximal effect compared to untreated controls (SNU-16) | warhead release in serum (ADC stability in serum; cynomolgus serum) | warhead release in serum (ADC stability in serum; human serum) | MDA-MB-231 maximal effect compared to untreated controls (MDA-MB-231; [4]) | IC50 (MDA-MB-231; six days, geometric mean, N ≥ 3, CEACAM5 Negative) | SK-CO-1 maximal effect compared to untreated controls (SK-CO-1; Table 2, at the highest tested compound concentration) | LS174T maximal effect compared to untreated controls (LS174T) | MKN-45 maximal effect compared to untreated controls (MKN-45) | payload release, of initial total conj. payload [2] | non-specific effect on MDA-MB-231 cells alone (only controls) ([3]; ADC concentration of 1 nM) | bystander effect against CEACAM5-negative MDA-MB-231 cells in the presence of CEACAM5-positive SK-CO-1 ([3]; ADC concentration of 1 nM, six days) | bystander effect compared to ADC SAR DM4 [3] | potency against SK-CO-1 (comparison of the DM4 ADCs) (SK-CO-1; FIG. 26A)
B1 | significant anti-tumor effect | no significant impact on body weight | (−97%) | 6.7 nM | (−96%) | Only minor warhead release observed | Only minor warhead release observed | (−84%) | 15 nM | (−98%) | (−81%) | (−90%) | ~40% | no non-specific effect | potent bystander effect | much more potent bystander effect | –
B2 | – | – | – | – | – | – | – | – | – | – | – | – | – | – | – | more pronounced bystander effect than ADC SAR DM4 | comparable potencies
